{
  "source": "the supplement of paper PMC11417369",
  "note": "This is one part of the list.",
  "data": [
    {"test_system": "PfSIP2 AP2 domain 1 (GST-tagged)", "assay": "gcPBM binding intensity (ln(normalized median fluorescence intensity)); higher = stronger DNA binding", "summary_of_the_method": "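Binding intensity is defined as the maximum Masliner-normalised natural-log median intensity across replicate spots for either probe orientation. It was measured on an Agilent 4 × 180k array of primer-extended double-stranded 36-bp intergenic genomic probes and negative controls, to which GST-tagged P. falciparum DNA-binding domains made in E. coli were applied for 1 h in 1× PBS with 1% milk, 0.2 mg/ml BSA, 0.5% salmon testes DNA and 0.03% Triton X-100. Detection was by Alexa488 anti-GST antibody and scanning at 488 nm.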", "values": [
      {"sequence": "TGATATTATTATAAGGTGCTTAAAAATAAAGATAAT [GTGCAC_site9539]", "gcPBM binding intensity (ln)": 7.78},
      {"sequence": "AAAAAAAAAGATCACACACACATAAATATAAACAAA [CACACA_site5285]", "gcPBM binding intensity (ln)": 6.92},
      {"sequence": "AAAAAAAAAAAAAAAAAAAAAAAAAAAAGTTAAAAA [TGCATGCA_negctrl_site74]", "gcPBM binding intensity (ln)": 8.74},
      {"sequence": "ATATAAAATAATAAGGGTACAGGTCTCTGCGATGTT [XGTACX_site786]", "gcPBM binding intensity (ln)": 6.75},
      {"sequence": "TAAAATATTGTTATTACATGCAACCTTATGAAAAAT [TGCATGCA_site706]", "gcPBM binding intensity (ln)": 7.16},
      {"sequence": "AGAATTTTAGATTTAGCACACATTTTTTTTTTTTTT [CACACA_site4081]", "gcPBM binding intensity (ln)": 7.07},
      {"sequence": "ACTCGCATATTTAAATGTACTTAATTAGAAGAAAAA [XGTACX_site3304]", "gcPBM binding intensity (ln)": 7.49},
      {"sequence": "AAGAAAAATATTCGTGTGCACAGAAGTATATGTGTG [GTGCAC_site9814]", "gcPBM binding intensity (ln)": 8.85},
      {"sequence": "TATTGTAAGAAAGGCACACAGATAAAATTATTATAT [CACACA_site2921]", "gcPBM binding intensity (ln)": 7.01},
      {"sequence": "ATCATCTTTATTCAAGTGCACTGAAAATTTTTTATA [GTGCAC_site9801]", "gcPBM binding intensity (ln)": 10.1},
      {"sequence": "ATAATTATATGGCTAGCACACAATAAATAATTATAT [CACACA_site3815]", "gcPBM binding intensity (ln)": 6.99},
      {"sequence": "ATATAAGTGTATCTAACACACAAATATATAAAAATG [CACACA_site1956]", "gcPBM binding intensity (ln)": 6.95},
      {"sequence": "ACAAGTTAAAATATTACACACATATAAATATTTATA [CACACA_site7467]", "gcPBM binding intensity (ln)": 7.02},
      {"sequence": "AGTAATAGTTTGTGCACACTCAAGTATATCATAGAT [CACACA_site6082]", "gcPBM binding intensity (ln)": 9.62},
      {"sequence": "TTTCGCTTTATTTATGCATGCAAATAAGTTGATATT [TGCATGCA_site724]", "gcPBM binding intensity (ln)": 7.16},
      {"sequence": "ATTTTTGTAAATACATGTACATATATATGCATATCC [XGTACX_site6353]", "gcPBM binding intensity (ln)": 7.33},
      {"sequence": "TACATATATACATACACACACATATAACCAATGTAG [CACACA_site2192]", "gcPBM binding intensity (ln)": 7.14},
      {"sequence": "AAATTAATGAAATATACACACATATATAAATATATA [CACACA_site4378]", "gcPBM binding intensity (ln)": 6.89},
      {"sequence": "AAATTTTTTAATTTTTCTCATTTAATTTAAAAATTA [GTGCAC_negctrl_site155]", "gcPBM binding intensity (ln)": 6.69},
      {"sequence": "AAATTAAAGATAAAAGTGCAAAATTATAAATTTATT", "gcPBM binding intensity (ln)": 7.97},
      {"sequence": "AAAAGTATATATTCAGTGCATAGTCTTTAAATATAA [GTGCAC_site9522]", "gcPBM binding intensity (ln)": 8.15},
      {"sequence": "ATAAGCATCTGGATATGTACTTATTCCTTTAAAGAT [XGTACX_site6225]", "gcPBM binding intensity (ln)": 7.04},
      {"sequence": "TATATATAACATTGTACACACAAAGAAATAATATTA [CACACA_site3035]", "gcPBM binding intensity (ln)": 7.01},
      {"sequence": "ATAAAAAAGCAACATCATATGTTTTTATAGAGTATT [CACACA_negctrl_site745]", "gcPBM binding intensity (ln)": 6.76},
      {"sequence": "AACAAGTTGCATGGTGCACACATGTATTTATATCTA [CACACA_site5414]", "gcPBM binding intensity (ln)": 11.8},
      {"sequence": "TATTAAAAATATTATGTACACACATTTTAGATATTT [CACACA_site8549]", "gcPBM binding intensity (ln)": 7.02},
      {"sequence": "ATATAAATAAAAAAAAAAAAAAAAAAAAAAAAAAAA [CACACA_negctrl_site972]", "gcPBM binding intensity (ln)": 6.84},
      {"sequence": "TATGCTACATTATATGTACACACATATACATATATA [CACACA_site8199]", "gcPBM binding intensity (ln)": 7.1},
      {"sequence": "ATTTATACGTAATATGCATAAATATAAATATATATA [XGTACX_negctrl_site133]", "gcPBM binding intensity (ln)": 7.4},
      {"sequence": "TTAAAATTTTAAAAATTTTAATTTTACAAAAAAAAT [TGCATGCA_negctrl_site227]", "gcPBM binding intensity (ln)": 6.69},
      {"sequence": "TTTCTTTCTTTCTTTTTTTAAATATTTTTTAAAAAT [TGCATGCA_negctrl_site206]", "gcPBM binding intensity (ln)": 7.26},
      {"sequence": "CTAAATATATAAAAAAGTACAAAATAAATAATAATT [XGTACX_site2442]", "gcPBM binding intensity (ln)": 7.01},
      {"sequence": "TATATATTATGACCACCACACACCTATACACATAAC [CACACA_site8773]", "gcPBM binding intensity (ln)": 7.3},
      {"sequence": "TATTTCTGATTATTTTGTACACATTATATATAATGC [XGTACX_site6990]", "gcPBM binding intensity (ln)": 7.13},
      {"sequence": "AATATAAACAGACACACACACATATAGATTTATATT [CACACA_site7382]", "gcPBM binding intensity (ln)": 7.1},
      {"sequence": "GGATAGATAATAGGGGGTACAAATATACATACATAT [XGTACX_site5089]", "gcPBM binding intensity (ln)": 8.24},
      {"sequence": "TTTTAATGAAAACACACACACACATATATATATATA [CACACA_site5295]", "gcPBM binding intensity (ln)": 9.74},
      {"sequence": "GAAAATAGAAAAAGCACACATATATTTTGGAATGTA [CACACA_site551]", "gcPBM binding intensity (ln)": 6.96},
      {"sequence": "TAATAAGTACCTTTTGCATGTGGCACGCTTTTTTTT [TGCATGCA_site573]", "gcPBM binding intensity (ln)": 6.75},
      {"sequence": "TATTATATAACAAAAAGTACTTATAAGAAATATATA [XGTACX_site5467]", "gcPBM binding intensity (ln)": 7.26},
      {"sequence": "AAATGAATTATATAATATATATAAATAAATAAATAA [CACACA_negctrl_site359]", "gcPBM binding intensity (ln)": 7.2},
      {"sequence": "ATATTTCATCTAGCTACACACATATAATAAATTATT [CACACA_site4094]", "gcPBM binding intensity (ln)": 7.31},
      {"sequence": "TTTTCAATATATAGAGCATGCGCATCCACAAATATG [TGCATGCA_site380]", "gcPBM binding intensity (ln)": 6.89},
      {"sequence": "AATGGAAAATTATTAACACACACATATAAATATATA [CACACA_site7899]", "gcPBM binding intensity (ln)": 6.91},
      {"sequence": "TGCCAATTTTTAAAAACATGCATTATATAGAATAAA [TGCATGCA_site872]", "gcPBM binding intensity (ln)": 7.06},
      {"sequence": "ATTAAAAGGGGGTTTACATGTGTGTGTGTAATATGG [TGCATGCA_negctrl_site293]", "gcPBM binding intensity (ln)": 7.32},
      {"sequence": "TACAACAATTTTTGCACACACCAAAACATAAAATAA [CACACA_site4964]", "gcPBM binding intensity (ln)": 7.52},
      {"sequence": "TTATACATTTGTAAATAAATAGAACTGTATTTTTTT [TGCATGCA_negctrl_site397]", "gcPBM binding intensity (ln)": 6.61},
      {"sequence": "TATATACCGATATATACACACAAATACATAAGCTTC [CACACA_site6760]", "gcPBM binding intensity (ln)": 6.84},
      {"sequence": "AATAATCATTTTCATAGTACGTATGATTAGAAAAAA [XGTACX_site2589]", "gcPBM binding intensity (ln)": 6.98},
      {"sequence": "TTTTGATTGTTATTCGTATATTATTTTATGATTATA [CACACA_negctrl_site1593]", "gcPBM binding intensity (ln)": 6.8},
      {"sequence": "CAAAATATTTTTATAACACACATATTTATAACGTGC [CACACA_site6659]", "gcPBM binding intensity (ln)": 6.97},
      {"sequence": "TAAATACACTGTAGCGCACACGGCCAAAAAAAAAAA [CACACA_site1818]", "gcPBM binding intensity (ln)": 7.25},
      {"sequence": "TTATTATCCTATATTTCTTTTCCTTCTTCAAAATTA [CACACA_negctrl_site1314]", "gcPBM binding intensity (ln)": 7.07},
      {"sequence": "TACTATCTATACAATACACACAAAAAAAAAAAAATA [CACACA_site3981]", "gcPBM binding intensity (ln)": 6.95},
      {"sequence": "TAATATCATTTATATTGTACTATAACAAAATCTATA [XGTACX_site7700]", "gcPBM binding intensity (ln)": 6.8}
    ]}
  ]
}
